The full ranking holds about 33,000 sequences; the median of “E-score (-0.5 to 0.5)” is about -0.012, and the highest 2% start at about 0.27. The list shows a part of the results.
What follows are sequences tested against T1, Vhr1 (UniProt P40522) (assay: PBM E-score (8-mer binding enrichment) (E-score (-0.5 to 0.5)); higher = stronger / more preferred TF binding; most listed sequences are background and not binding sites). Conditions: protein concentration: 200 nM; construct: GST-full length.
T1 sequence: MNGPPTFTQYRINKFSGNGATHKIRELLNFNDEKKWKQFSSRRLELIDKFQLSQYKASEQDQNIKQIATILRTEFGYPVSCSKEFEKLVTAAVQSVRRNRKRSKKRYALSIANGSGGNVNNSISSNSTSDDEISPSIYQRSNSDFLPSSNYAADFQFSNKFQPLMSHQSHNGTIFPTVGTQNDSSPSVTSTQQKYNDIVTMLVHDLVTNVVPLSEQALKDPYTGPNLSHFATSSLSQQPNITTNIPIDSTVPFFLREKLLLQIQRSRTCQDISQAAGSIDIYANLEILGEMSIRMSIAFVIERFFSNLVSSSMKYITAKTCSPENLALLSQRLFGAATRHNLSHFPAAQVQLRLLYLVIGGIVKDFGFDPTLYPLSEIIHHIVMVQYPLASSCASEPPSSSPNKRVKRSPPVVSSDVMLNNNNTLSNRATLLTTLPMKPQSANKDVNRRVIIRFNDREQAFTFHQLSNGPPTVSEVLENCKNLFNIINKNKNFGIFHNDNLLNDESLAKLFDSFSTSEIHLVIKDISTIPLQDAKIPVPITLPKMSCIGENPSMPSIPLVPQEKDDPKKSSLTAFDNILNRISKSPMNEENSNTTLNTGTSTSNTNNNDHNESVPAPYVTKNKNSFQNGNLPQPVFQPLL
Method in brief: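 Full-length yeast transcription factors or their DNA-binding domains, GST-tagged and expressed with PURExpress, were applied at about 100-200 nM to universal all-10-mer Agilent arrays. These arrays had been made double-stranded by primer extension on fresh or once-stripped slides. Detection used fluorescent anti-GST, normalisation used masliner, and E-scores for ungapped eight-base words pooled with reverse complements came from the Universal PBM Analysis Suite.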

| Sequence | PBM E-score |
| --- | --- |
| TATGACGA | -0.0139 |
| CTGCGGTC | -0.0533 |
| CCAGTATA | -0.0295 |
| CCTTAAAA | -0.253 |
| ATCCATAG | -0.015 |
| GAAAGCCC | 0.0103 |
| ATGAAGAA | 0.0348 |
| GCTCATAC | -0.135 |
| AAAAGACG | -0.138 |
| ACAAGTTA | 0.019 |
| ACGTCTGC | -0.2 |
| GAGTCGGA | 0.416 |
| GGTGCAAC | -0.183 |
| AGGACGCG | -0.226 |
| CACGACCG | -0.188 |
| AGCTCGCG | 0.0952 |
| ACGCCGAG | 0.148 |
| CGGTTCGA | 0.189 |
| AGAGCCGG | -0.186 |
| TAAGGAAA | -0.288 |
| ATTGTTAC | 0.132 |
| CAGTAGAG | -0.0187 |
| CTGGCAAG | -0.21 |
| AGCTTATG | -0.0276 |
| ATTATCTC | -0.0454 |

| Sequence | PBM E-score |
| --- | --- |
| GCGACCTA | 0.0909 |
| AGGACAAC | -0.0656 |
| CCTAAGCG | -0.249 |
| GCTGGTGA | 0.181 |
| GCAATACC | -0.00798 |
| GGAAAGAC | -0.189 |
| AGTCCAAG | -0.086 |
| TCTATTAA | -0.0243 |
| ATAAAAGG | -0.166 |
| GAAATTTA | -0.157 |
| TAGCAGCA | -0.0178 |
| CCGACGCG | 0.133 |
| ACATGCTC | -0.0232 |
| ATATAAGC | 0.0517 |
| TAATGGGA | -0.0763 |
| CCTCCAAC | -0.034 |
| ACGATATA | -0.0384 |
| CACAGAAG | 0.0662 |
| TCATCCGA | 0.167 |
| CACGAAAC | 0.162 |
| GGCAAAAC | -0.172 |
| CCGTGCCA | -0.15 |
| GACTTATA | 0.145 |
| GCATTGTA | -0.0897 |
| ATCTCGGA | 0.0433 |

| Sequence | PBM E-score |
| --- | --- |
| AGTGTCGA | 0.0179 |
| CAATTGTC | 0.0541 |
| ACACTACG | 0.00082 |
| ACGTGGCA | -0.147 |
| CCGCCTCG | 0.147 |
| ACCCACGG | 0.038 |
| AGGTTGTA | 0.0142 |
| CGGGCTTC | 0.048 |
| ACAGGAAC | -0.107 |
| TTCATAAA | 0.0491 |
| GGCGACGA | -0.103 |
| AAATGCGA | -0.00728 |
| CAACAGTG | 0.105 |
| ACACCCCA | -0.026 |
| CGATTGAG | 0.142 |
| ACTATGAG | 0.181 |
| GAATTATA | -0.14 |
| CTACTACA | 0.119 |
| ACGACTAC | 0.209 |
| GCTGTGAC | 0.23 |
| TCTGTTCA | 0.151 |
| CTATAGGA | -0.117 |
| ATCCTCCA | -0.186 |
| CGACGACA | -0.0337 |
| AGGAGTCA | 0.479 |

| Sequence | PBM E-score |
| --- | --- |
| CGTTCGAG | -0.0846 |
| ACCACGGC | 0.0744 |
| GGAAGAAC | 0.0668 |
| AATGTCGA | -0.0216 |
| AACAACAG | -0.0774 |
| CAAGGACA | -0.105 |
| ATATCTTG | 0.147 |
| ACTATAAA | -0.0123 |
| GGGCACTA | -0.214 |
| AATCGACG | -0.189 |
| AATCTCGT | -0.0585 |
| CCTCACAA | 0.115 |
| TAAAAATA | 0.0139 |
| ATGAAGTA | -0.0612 |
| AGTTCAGC | -0.0754 |
| CGATTGGA | 0.0449 |
| GTCGTCAA | 0.00192 |
| GAATATAC | 0.101 |
| GTGGTAAC | -0.0602 |
| AGCGCTTG | -0.0808 |
| CGTCAAAA | -0.0988 |
| ATATGGAA | 0.178 |
| CTGGTAGC | 0.0951 |
| CATAGTCG | 0.238 |
| CGTATTGA | 0.101 |

| Sequence | PBM E-score |
| --- | --- |
| AAGAATGC | -0.16 |
| ACCCTCCG | -0.0102 |
| ACCGGACG | 0.283 |
| AACAGTGC | 0.0528 |
| GAGACAAA | -0.214 |
| CTTAATAA | -0.126 |
| CACGAGTG | -0.0364 |
| GAAATAAC | 0.088 |
| GGCGGTGA | 0.184 |
| ACCTTTAC | -0.0489 |
| CGCGCCCA | 0.0957 |
| TAACTTAA | -0.0326 |
| TATCAACA | 0.172 |
| ACGGCTAA | 0.0235 |
| GCAGTCGA | -0.0468 |
| AGAGTGTC | 0.143 |
| ATATGCAT | 0.0389 |
| CAGGTCCC | -0.115 |
| AGCACATG | 0.251 |
| GTATAGTA | 0.179 |
| CTCAAAGA | -0.331 |
| ACAGAAAG | 0.0139 |
| GGGGCCAC | -0.101 |
| GCCGGCAC | 0.133 |
| GGATGCAC | -0.144 |

| Sequence | PBM E-score |
| --- | --- |
| AGTTGGTC | 0.0881 |
| ATTCGAAA | -0.0973 |
| CAAGGAGA | -0.227 |
| AAAACGAT | 0.0301 |
| CCGAACCG | 0.0169 |
| AGCGACAT | -0.0124 |
| ATTATACA | 0.00881 |
| ACGCTCGG | 0.0862 |
| AACGCCCT | -0.227 |
| CGGAGGAG | -0.125 |
| CAACAGCG | -0.151 |
| CAAATCGC | -0.178 |
| GAGGGACC | -0.221 |
| CTTAAGTC | -0.188 |
| ATCTAAGA | -0.0227 |
| ACGTAACA | 0.0288 |
| GGACCGAA | -0.0967 |
| AAGGGAAC | -0.24 |
| ACGGCCGT | -0.0304 |
| CTTGCGGA | -0.142 |
| ATGTGTGC | 0.12 |
| CATAACGA | 0.0162 |
| TAGTGCAA | -0.0998 |
| CGCAATAA | 0.0361 |
| ACATATAA | 0.0819 |

| Sequence | PBM E-score |
| --- | --- |
| GTTAGCCA | 0.0686 |
| AACTACGT | 0.0216 |
| ATTACAGG | 0.126 |
| ATGACAGA | -0.0366 |
| GTGCAAGA | -0.11 |
| ACTCACAT | 0.286 |
| ATTATTCC | 0.114 |
| ACCGTTCA | -0.0238 |
| ACGCAGAC | 0.124 |
| ATGGGTGG | 0.242 |
| ATGTGACG | -0.152 |
| GAAAGTGC | -0.34 |
| CTTTAAGA | 0.0444 |
| GAGCGACA | 0.0659 |
| GCTGAGCA | 0.149 |
| GCCCGCCC | 0.137 |
| GTTAACCA | 0.217 |
| CACAGTAA | 0.198 |
| CGGTATGC | -0.197 |
| AGACACAG | 0.0391 |
| CACCACGA | 0.187 |
| ACGGCATG | -0.124 |

Source: the supplement of paper PMC3334620
